# Assay results reported in PubChem BioAssay (Tox21).
# Values joined by “and” are separate entries in the source; they are usually repeats but may differ in a detail not shown here. Equal values may be shown once. The inconclusive results got no clear call from the source; some entries with a clear call stand among them for comparison. For part of these data: Potencies of inconclusive entries are doubtful fits and often do not repeat. More than one record can exist for a structure, and the calls need not agree. Active and inactive are the calls of the source. Unless noted, calls come from the whole dose curve; as a rule, active = well fitted curve in the direction sought with a large enough effect in the repeat runs; inconclusive = weak or mixed curves; inactive = no such curve, though single readings can be large; an effect the other way counts as inactive or inconclusive.
# Legend:
# [1] = qHTS assay for identifying genotoxic compounds that show differential cytotoxicity against isogenic chicken DT40 cell lines with known DNA damage response pathways - Rev3 mutant cell line (AID 743014); conditions: chicken DT40 Rev3-/- viability, CellTiter-Glo, 40 h; activity, negative = cytotoxicity: at 68.4 µM (top of the series) unless noted; note: nearly all actives have a fitted effect of over 55% in size; note: potency is the fitted concentration of half-maximal effect; for activity, negative = cytotoxicity: % is set by controls: 0 for no effect and ±100 for the full control effect
# [2] = qHTS assay for identifying genotoxic compounds that show differential cytotoxicity against isogenic chicken DT40 cell lines with known DNA damage response pathways - Rad54/Ku70 mutant cell line (AID 743015); conditions: DT40 Rad54/Ku70 mutant viability, CellTiter-Glo, 40 h; activity change, negative = cytotoxicity: at 66.8 µM (top of the series) unless noted; note: nearly all actives have a fitted effect of over 60% in size; note: potency is the fitted concentration of half-maximal effect; for activity change, negative = cytotoxicity: % is set by controls: 0 for no effect and ±100 for the full control effect
# [3] = qHTS assay to identify small molecule antagonists of the androgen receptor (AR) signaling pathway - cell viability counter screen (AID 743033; note: nearly all actives have a fitted effect of over 45% in size; note: potency is the fitted concentration of half-maximal effect)
# [4] = qHTS assay to identify small molecule antagonists of the thyroid receptor (TR) signaling pathway - cell viability counter screen (AID 743064); conditions: GH3.TRE-Luc viability, CellTiter-Fluor, 24 h; activity change, negative = cytotoxic: at 70.3 µM (top of the series) unless noted; note: nearly all actives have a fitted effect of over 50% in size; note: potency is the fitted concentration of half-maximal effect
# Summary of the method: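 Same-well viability check: GH3.TRE-Luc cells stimulated with 1 nM T3 alongside test compound for 23.5 h, followed by CellTiter-Fluor fluorescence.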
# [5] = target: Androgen receptor (Homo sapiens) (UniProt P10275); assay: qHTS assay to identify small molecule antagonists of the androgen receptor (AR) signaling pathway (AID 743035; active = well fitted inhibition curve with a large enough effect in the signal ratio in the repeat runs, not every such curve was filed as active; inconclusive = weak or mixed curves, or effect the other way; inactive = no such curve, though single readings can be large or run the other way; the % refers to the signal ratio; note: % is set by controls: 0 for no effect and ±100 for the full control effect); conditions: HEK293 AR-UAS-bla, R1881-stimulated, beta-lactamase FRET, 16 h; activity change, negative = inhibition: at 58.5 µM (top of the series) unless noted
# Sequence of UniProt P10275 (P10275 whole entry, looked up): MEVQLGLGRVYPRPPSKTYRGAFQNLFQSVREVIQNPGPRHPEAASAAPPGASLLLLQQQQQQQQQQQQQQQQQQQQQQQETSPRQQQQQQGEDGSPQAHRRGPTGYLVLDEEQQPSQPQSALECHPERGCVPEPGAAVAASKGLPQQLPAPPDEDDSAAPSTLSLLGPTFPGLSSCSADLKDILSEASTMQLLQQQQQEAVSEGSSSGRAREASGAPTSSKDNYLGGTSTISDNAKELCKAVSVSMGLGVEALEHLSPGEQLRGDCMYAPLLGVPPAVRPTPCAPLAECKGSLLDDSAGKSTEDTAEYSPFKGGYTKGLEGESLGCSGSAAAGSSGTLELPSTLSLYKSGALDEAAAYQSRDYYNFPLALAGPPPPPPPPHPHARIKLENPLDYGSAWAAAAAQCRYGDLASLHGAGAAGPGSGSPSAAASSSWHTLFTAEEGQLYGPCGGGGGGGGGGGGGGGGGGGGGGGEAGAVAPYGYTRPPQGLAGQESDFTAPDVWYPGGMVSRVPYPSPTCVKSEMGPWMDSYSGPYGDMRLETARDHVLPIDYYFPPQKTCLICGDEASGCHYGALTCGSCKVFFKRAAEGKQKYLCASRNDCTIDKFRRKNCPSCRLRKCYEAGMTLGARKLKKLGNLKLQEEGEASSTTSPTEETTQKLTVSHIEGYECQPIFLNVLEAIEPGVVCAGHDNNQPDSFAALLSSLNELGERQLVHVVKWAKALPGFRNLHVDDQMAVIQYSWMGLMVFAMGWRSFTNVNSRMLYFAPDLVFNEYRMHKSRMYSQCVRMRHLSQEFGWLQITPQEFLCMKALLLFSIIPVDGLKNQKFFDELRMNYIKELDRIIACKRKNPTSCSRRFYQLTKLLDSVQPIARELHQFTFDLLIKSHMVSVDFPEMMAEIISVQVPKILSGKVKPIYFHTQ
# Summary of the method: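 HEK293 cells stably carrying UAS-beta-lactamase reporter, 2,000/well, given compounds plus R1881 agonist and incubated 16 h at 37C. LiveBLAzer B/G FRET substrate then added for 2 h at room temperature before fluorescence reading.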
# [6] = target: Androgen receptor (Homo sapiens) (UniProt P10275); assay: qHTS assay to identify small molecule agonists of the androgen receptor (AR) signaling pathway (AID 743036; active = well fitted activation curve with a large enough effect in the signal ratio in the repeat runs, with a control signal flat, not every such curve was filed as active; inconclusive = weak or mixed curves, or effect the other way; inactive = no such curve, though single readings can be large or run the other way; the % refers to the signal ratio; note: potency is the fitted concentration of half-maximal effect; for activation: % is set by controls: 0 for no effect and ±100 for the full control effect); conditions: HEK293 AR-UAS-bla GripTite, beta-lactamase FRET ratio, 16 h; activation: at 62.4 µM (top of the series) unless noted
# Summary of the method: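 Agonist activity was scored by beta-lactamase reporter fluorescence in stably transfected HEK293 cells exposed to compounds for 16 h at 37C and 5% CO2. Substrate loading took 2 h at room temperature.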
# [7] = qHTS assay to identify small molecule antagonists of the thyroid receptor (TR) signaling pathway (AID 743065); note: potency is the fitted concentration of half-maximal effect; nearly all actives have a fitted effect of over 55% in size
# Summary of the method: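 GH3.TRE-Luc rat pituitary cells (two TREs driving luciferase) were dosed with compound, then stimulated with 1 nM T3 (final) for 23.5 h at 37 C. ONE-Glo luminescence was the read-out, with CellTiter-Fluor fluorescence as the cytotoxicity counter-screen.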
# [8] = qHTS assay to identify small molecule antagonists of the androgen receptor (AR) signaling pathway using the MDA cell line - cell viability counter screen (AID 743041; note: nearly all actives have a fitted effect of over 45% in size; note: potency is the fitted concentration of half-maximal effect); conditions: MDA-kb2 viability, CellTiter-Fluor, 16 h, cells co-treated with R1881 androgen agonist; viability change, negative = cytotoxic: at 70.3 µM (top of the series) unless noted
# Summary of the method: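 MDA-kb2 AR-luc cells (MMTV-luciferase, AR/GR responsive) treated with compounds plus R1881 agonist for 16 h at 37C. CellTiter-Fluor added at 15.5 h; fluorescence read after 30 min in the same wells.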
# [9] = target: Androgen receptor (Homo sapiens) (UniProt P10275); assay: qHTS assay to identify small molecule antagonists of the androgen receptor (AR) signaling pathway using the MDA cell line (AID 743042; note: potency is the fitted concentration of half-maximal effect; nearly all actives have a fitted effect of over 55% in size)
# Summary of the method: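 MDA-kb2 breast carcinoma cells carrying MMTV-luciferase (AR/GR responsive) were co-treated with compounds and the agonist R1881 for 16 h at 37C. Inhibition read as ONE-Glo luminescence; CellTiter-Fluor fluorescence measured in parallel for cytotoxicity.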
# Tags give direction and shape of the fitted curve or compound fluorescence and quenching.
structure (smiles),measurement,setting,value
CC1=C(/C=C/C(C)=C/C=C/C(C)=C\C=O)C(C)(C)CCC1,Potency,[1],active: 14.5 µM
same,Potency,[2],active: 13 µM
same,Potency,[3],active: 29.3 µM
same,Potency,[4],active: 25.8 µM
O=C(O)c1ccc2c(c1)C(=O)OC2=O,Potency,[1],inactive
same,Potency,[2],inactive
same,Potency,[5],inactive
same,Potency,[6],inactive
same,Potency,[4],"inconclusive: 8.78 µM [rising, partial curve]"
CCC(Cc1c(I)cc(I)c(N)c1I)C(=O)O (stereo unspecified),Potency,[1],"inconclusive: 66.4 µM [cytotoxic, single point]"
same,Potency,[2],"inconclusive: 66.4 µM [cytotoxic, partial curve, poor fit]"
same,Potency,[3],"inconclusive: 0.362 µM [cytotoxic, full curve, poor fit]"
same,Potency,[4],"inconclusive: 52.8 µM [cytotoxic, single point]"
CC(O)(c1ccc(Cl)cc1)c1ccc(Cl)cc1,Potency,[1],"inconclusive: 19.3 µM [cytotoxic, partial curve]"
same,Potency,[2],"inconclusive: 19.3 µM [cytotoxic, partial curve]"
same,Potency,[3],inconclusive: 49 µM [cytotoxic]
same,Potency,[4],"inconclusive: 30.6 µM [cytotoxic, partial curve, poor fit]"
same,Potency,[7],"inconclusive: 27.3 µM [inhibitor, partial curve, poor fit]"
COc1ccc(-c2ccc3cc(C(=O)O)ccc3c2)cc1C12CC3CC(CC(C3)C1)C2,Potency,[1],inactive
same,Potency,[2],inactive
same,Potency,[4],active: 1.68 µM
O=C1C=CC(=O)N1c1ccc(Cc2ccc(N3C(=O)C=CC3=O)cc2)cc1,Potency,[1],active: 1.22 µM
same,Potency,[3],active: 17.4 µM
COc1ccccc1/C=C/C=O,Potency,[1],"inconclusive: 77 µM [cytotoxic, single point]"
same,Potency,[2],active: 31.4 µM and active: 54.5 µM
same,Potency,[8],"inconclusive: 24.3 µM [cytotoxic, partial curve, poor fit]"
same,Potency,[4],"active: 55.9 µM and inconclusive: 54.5 µM [cytotoxic, partial curve]"
same,Potency,[7],"inconclusive: 48.6 µM [inhibitor, partial curve]"
COc1ccc(COC(C)=O)cc1,Potency,[1],"inconclusive: 68.6 µM [cytotoxic, partial curve, poor fit]"
same,Potency,[2],inactive
same,Potency,[4],inactive
C[C@]12CC[C@@H]3c4ccc(O)cc4CC[C@H]3[C@@H]1CCC2=O,Potency,[1],"inconclusive: 17.2 µM [cytotoxic, partial curve, poor fit]"
same,Potency,[2],"inconclusive: 29.8 µM [cytotoxic, single point] and inconclusive: 24.4 µM [cytotoxic, partial curve, poor fit]"
same,Potency,[4],inactive
CC1CC(OC(=O)c2ccccc2O)CC(C)(C)C1 (stereo unspecified),Potency,[1],"inconclusive: 67.9 µM [cytotoxic, single point]"
same,Potency,[2],"inconclusive: 67.9 µM [cytotoxic, single point]"
same,Potency,[3],"inconclusive: 54.4 µM [cytotoxic, single point]"
same,Potency,[4],"inconclusive: 33.5 µM [cytotoxic, single point] and inconclusive: 67.9 µM [cytotoxic, single point] and inconclusive: 68.6 µM [cytotoxic, single point]"
same,Potency,[7],"inconclusive: 29.8 µM [inhibitor, single point] and inconclusive: 67.9 µM [inhibitor, single point] and inconclusive: 68.6 µM [inhibitor, single point]"
c1ccc2occc2c1,Potency,[1],"inconclusive: 48.6 µM [cytotoxic, partial curve, poor fit]"
same,Potency,[2],"inconclusive: 68.6 µM [cytotoxic, single point]"
same,Potency,[4],"inconclusive: 61.1 µM [rising, partial curve, poor fit]"
O=c1cc(-c2ccccc2)oc2ccccc12,Potency,[1],active: 48.6 µM and active: 43.1 µM
same,Potency,[2],"inconclusive: 77 µM [cytotoxic, single point]"
same,Potency,[6],"inconclusive: 9.77 µM [fluorescent, full curve]"
same,activation,[6],inconclusive: -2.94%
same,Potency,[9],inconclusive: 2.51 µM [inhibitor]
same,Potency,[4],"inconclusive: 5.42 µM [rising, full curve, poor fit]"
C=C(c1ccc(C(=O)O)cc1)c1cc2c(cc1C)C(C)(C)CCC2(C)C,Potency,[1],"inconclusive: 42.2 nM [cytotoxic, partial curve, poor fit] and active: 77 µM"
same,Potency,[2],"inconclusive: 26.6 µM [cytotoxic, partial curve, poor fit]"
same,Potency,[3],inactive
same,Potency,[4],active: 11.9 µM and active: 13.7 µM
same,Potency,[7],active: 9.44 µM and active: 9.69 µM
C=CCCCCCCC=C,Potency,[1],inconclusive: 68.7 µM [cytotoxic]
same,Potency,[3],"inconclusive: 55.1 µM [cytotoxic, single point]"
CCCCCCCCOC(=O)c1ccc(O)cc1,Potency,[1],"inconclusive: 24.3 µM [cytotoxic, full curve, poor fit]"
same,Potency,[2],"active: 60.9 µM and inconclusive: 77 µM [cytotoxic, single point]"
same,Potency,[4],"inconclusive: 68.4 µM [cytotoxic, single point]"
NC(=O)n1c(O)c(C(=O)c2cccs2)c2cc(Cl)ccc21,Potency,[1],"inconclusive: 33.5 µM [cytotoxic, single point]"
same,Potency,[2],"inconclusive: 33.5 µM [cytotoxic, single point]"
same,Potency,[4],"inconclusive: 33.5 µM [cytotoxic, single point]"
same,Potency,[7],active: 29.8 µM
O=C1CCCCCCCCCCCCCC1,Potency,[1],"inconclusive: 24.3 µM [cytotoxic, full curve]"
same,Potency,[2],"inconclusive: 48.6 µM [cytotoxic, partial curve]"
same,Potency,[4],"inconclusive: 77 µM [cytotoxic, single point]"
NC(=O)N/N=C/c1ccc([N+](=O)[O-])o1,Potency,[1],inconclusive: 29.8 µM [cytotoxic]
same,Potency,[2],active: 29.8 µM and inactive and active: 38.6 µM
same,Potency,[4],"inconclusive: 6.68 µM [cytotoxic, full curve, poor fit] and inconclusive: 40.9 µM [cytotoxic]"
O=c1c(O)c(-c2ccc(O)cc2)oc2cc(O)cc(O)c12,Potency,[1],"inconclusive: 60.9 µM [cytotoxic, single point]"
same,Potency,[2],"inconclusive: 68.3 µM [cytotoxic, single point]"
same,Potency,[4],"inconclusive: 68.3 µM [cytotoxic, single point] and inconclusive: 46.3 µM [cytotoxic, single point]"
same,Potency,[7],"inconclusive: 68.3 µM [inhibitor, single point] and inconclusive: 46.3 µM [inhibitor, single point]"
CC(C)(C)c1ccc(O)c(C(C)(C)C)c1,Potency,[1],active: 27.2 µM and active: 24.3 µM
same,Potency,[2],active: 30.5 µM and active: 27.3 µM
same,Potency,[3],"inconclusive: 24.4 µM [cytotoxic] and inconclusive: 17.4 µM [cytotoxic, full curve]"
same,Potency,[4],active: 27.2 µM and active: 30.6 µM
CCCN(CCC)c1c([N+](=O)[O-])cc(C(F)(F)F)c(N)c1[N+](=O)[O-],Potency,[1],inconclusive: 15.3 µM [cytotoxic]
same,Potency,[3],"inconclusive: 24.5 µM [cytotoxic, single point]"
CCC(C)OC(=O)c1ccc(O)cc1 (stereo unspecified),Potency,[1],"inconclusive: 69 µM [cytotoxic, single point]"
same,Potency,[2],"inconclusive: 69 µM [cytotoxic, single point] and inconclusive: 38.6 µM [cytotoxic, partial curve, poor fit]"
same,Potency,[4],"inconclusive: 17.2 µM [rising, single point]"
CSc1c(Cl)c(Cl)c(Cl)c(Cl)c1Cl,Potency,[1],"inconclusive: 68.2 µM [cytotoxic, single point]"
same,Potency,[2],inactive
same,Potency,[8],inactive
same,Potency,[4],"inconclusive: 76.5 µM [cytotoxic, single point]"
same,Potency,[7],"inconclusive: 68.2 µM [inhibitor, single point]"
C[C@]12CC[C@@H]3c4ccc(O)cc4CC[C@H]3[C@@H]1CC[C@@H]2OC(=O)CCC1CCCC1,Potency,[1],"inconclusive: 11.9 µM [cytotoxic, partial curve] and inconclusive: 11.9 µM [cytotoxic] and active: 24.3 µM"
same,Potency,[2],"inconclusive: 13.3 µM [cytotoxic, single point] and inconclusive: 27.3 µM [cytotoxic, single point]"
same,Potency,[3],inconclusive: 54.9 µM [cytotoxic]
same,Potency,[4],"inconclusive: 33.5 µM [cytotoxic, single point] and inconclusive: 29.8 µM [cytotoxic, single point] and inconclusive: 68.6 µM [cytotoxic, single point]"
same,Potency,[7],"inconclusive: 33.5 µM [inhibitor, single point] and inconclusive: 29.8 µM [inhibitor] and inconclusive: 68.6 µM [inhibitor, single point]"
CCCCCCC(C)OC(=O)COc1nc(F)c(Cl)c(N)c1Cl (stereo unspecified),Potency,[1],active: 38.6 µM
same,Potency,[2],active: 38.6 µM
same,Potency,[8],"inconclusive: 86.3 µM [rising, partial curve, poor fit]"
same,Potency,[4],"inconclusive: 77 µM [cytotoxic, single point]"
same,Potency,[7],"inconclusive: 68.6 µM [inhibitor, single point]"
